Hit rate of the full screen: of about 130,000 compounds, about 550 (0.42%) were called active. The inconclusive results got no clear call from the source; some entries with a clear call stand among them for comparison. Calls follow the shape of the dose curve; as a rule, active = well fitted inhibition curve with a large enough effect; inconclusive = small, poorly fitted or top-dose-only effect, or effect the other way; inactive = flat fitted curve, though single readings scatter. No potency is given beside an inconclusive call; the fits are too rough.
assay: qHTS Assay for Inhibitors of the ERK Signaling Pathway using a Homogeneous Screening Assay; Stimulation with EGF; conditions: HEK293-V1b, EGF-stimulated phospho-ERK AlphaScreen; activity change, negative = inhibition: at the top concentration; also: nearly all actives have a fitted effect of over 55% in size;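 as to activity change, negative = inhibition: plate controls were stimulated vehicle wells for no effect and unstimulated vehicle basal for full effect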
Procedure, shortened: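 HEK293 cells stably expressing V1b receptor, serum-reduced (1% FBS) overnight, got compound for 30 min at 37C, then 25 nM EGF for 5 min. Lysate phospho-ERK read by AlphaScreen SureFire; AC50 from Hill fits.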
Potency is read from the fitted curve at half-maximal effect; tags tell the direction and shape of the fitted curve.

| Structure (SMILES) | activity change, negative = inhibition | Potency |
| --- | --- | --- |
| Cc1cc(C)nc(-n2ncc(C#N)c2N)n1 | inactive: 1.3% [at 57.5 µM] | – |
| CCN(CC)CCNc1nc(-n2nc(C)cc2C)nc2sc3c(c12)CC(C)(C)OC3 | – | inconclusive [inhibitor, single point] |
| CCOc1ccc(C2NC(=S)NC3=C2CCc2ccccc23)cc1 (stereo unspecified) | inactive: 0.15% [at 57.5 µM] | – |
| COc1cccc(-c2csc(N3CCN(CC(=O)NNC(=O)c4ccco4)CC3)n2)c1 | – | inconclusive [inhibitor, partial curve] |
| Cc1ccc(CN2CCN(/N=C/c3ccc(C)s3)CC2)c(C)c1 | – | inconclusive [inhibitor, partial curve] |
| CC(=O)c1c(C)c(C)c2n1CCn1c(C)ccc1-2 | – | inconclusive [activator, single point] |
| Cc1ccc(NC(=O)c2ccc(OC(F)(F)F)cc2)cc1S(=O)(=O)N(C)C | – | inconclusive [inhibitor, single point] |
| CN(C)C(=O)c1nc2ccc(Cl)cn2c1CN1CCN(c2ncccn2)CC1 | – | inconclusive [inhibitor, single point] |
| N[C@@H](CCCC(=O)O)C(=O)O | inactive: -6.89% | – |
| O=C(OCc1ccco1)c1cccnc1 | – | inconclusive [inhibitor, single point] |
| Cc1ccc(/C=C2/SC(=S)N(c3ccc(S(=O)(=O)Nc4nccs4)cc3)C2=O)cc1 | – | inconclusive [inhibitor, single point] |
| COc1ccc(Cn2c(C3CCCCC3)nc3c(c(=O)c4ccccc4n3C)c2=O)cc1 | – | inconclusive [inhibitor, single point] |
| COc1ccc(NS(=O)(=O)c2ccc(O)c(C(=O)OCC(=O)NC3CCCCC3)c2)cc1 | – | inconclusive [inhibitor, partial curve] |
| N#C/C(=C\c1ccc(O)c(O)c1)C(=O)NCCc1ccccc1 | – | inconclusive [inhibitor, single point] |
| CCN(CC)c1ccc2cc(S(=O)(=O)c3ccc(C)cc3)c(=O)oc2c1 | – | inconclusive [activator, single point] |
| N#Cc1cccc(NC(=O)N2CC[C@@]3(CCCN(C(=O)c4cc(C(F)(F)F)cc(C(F)(F)F)c4)C3)C2)c1 | inactive: -4.95% | – |
| CCCN1CCC(=NNc2ccc(S(=O)(=O)N(CC)CC)cc2[N+](=O)[O-])CC1 | – | inconclusive [inhibitor, single point] |
| COc1ncccc1-c1nnn(-c2ccc(Cl)c(Cl)c2)n1 | inactive: -17.3% [at 57.5 µM] | – |
| O=C(COC(=O)c1ccc(NS(=O)(=O)c2cccs2)cc1O)Nc1nc2ccccc2s1 | – | inconclusive [inhibitor, single point] |
| CCn1c(O)c(N=NC(=O)c2cccs2)c2ccccc21 | – | inconclusive [inhibitor, single point] |
| CCOC(=O)c1c(C)[nH]c(N=Nc2ccc(OC)cc2)c1C | – | inconclusive [inhibitor, partial curve, poor fit] |

| Structure (SMILES) | activity change, negative = inhibition | Potency |
| --- | --- | --- |
| CCOC(=O)C1(Cc2ccccc2)CCN(Cc2cc(OC)c3c(c2)OCO3)CC1 | – | inconclusive [inhibitor, single point] |
| CC[C@H](C)[C@@H]1O[C@]2(CC[C@@H]1C)C[C@H]1C[C@H](CC=C(C)[C@@H](O[C@@H]3C[C@H](OC)[C@H](O[C@@H]4C[C@H](OC)[C@H](O)[C@H](C)O4)[C@H](C)O3)[C@@H](C)C=CC=C3CO[C@@H]4[C@@H](O)C(C)=C[C@@H](C(=O)O1)[C@]34O)O2 | – | inconclusive [inhibitor, single point] |
| CC1CC(=O)c2c(cc3c(-c4c(O)cc(O)c5c(O)c6c(cc45)OC(C)CC6=O)c(O)cc(O)c3c2O)O1 (stereo unspecified) | – | inconclusive [inhibitor, full curve] |
| CC1(C)CC(N(Cc2ccc(F)cc2)C(=O)c2ccc(F)cc2)CCO1 (stereo unspecified) | inactive: -2.45% [at 57.5 µM] | – |
| COc1ccc(/C=C2\SC(=O)N(CC(=O)NNC(=O)c3ccccc3O)C2=O)cc1 | – | inconclusive [inhibitor, partial curve] |
| N#Cc1nnn(Cc2ccccc2)c1N | inactive: -3.28% | – |
| COc1cccc(-c2csc(N3CCN(C(=O)Nc4ccc(F)cc4)CC3)n2)c1 | – | inconclusive [inhibitor, single point] |
| COc1ccc(C2(O)CCN(CC(=O)Nc3nc(-c4ccccc4)cs3)CC2)cc1 | – | inconclusive [inhibitor, single point] |
| Cc1cccc(C)c1NC(=S)NCCc1ccc(O)c(O)c1 | – | inconclusive [inhibitor, single point] |
| O=C(Nc1ccccc1Cl)N1CCCN(c2nc(-c3ccccc3)ns2)CC1 | – | inconclusive [inhibitor, single point] |
| CCCC[C@@H]1C[C@H]1C(NC(=O)c1cccnc1)c1ccc(-c2ccccc2)cc1 (stereo partly specified) | inactive: 13.9% | – |
| Cc1ccc(OCC(=O)Nc2ccc(CN3CCCCC3)cc2)c(C)c1 | – | inconclusive [inhibitor, full curve, poor fit] |
| CC1C=CCC2C(=O)N(c3cccc(C(=O)N4CCN(c5ccc(F)cc5)CC4)c3)C(=O)C12 (stereo unspecified) | – | inconclusive [inhibitor, single point] |
| N#Cc1ccc(CN2CCCC3(CCN(C(=O)c4csnn4)CC3)C2)cc1 | inactive: -3.67% | – |
| O=C(NCc1nc(-c2ccc(C(F)(F)F)cc2)no1)Nc1cc(Cl)cc(Cl)c1 | inactive: -18.7% [at 57.5 µM] | – |
| Cc1cc(/C=C\c2ccc3cc(N(C)C)ccc3[n+]2C)c(C)n1-c1ccccc1 | – | inconclusive [inhibitor, partial curve] |
| C/C(CC(=O)Nc1ccc(Cl)c(C(F)(F)F)c1)=N\NC(=O)c1ccccc1O | inactive: 4.73% | – |
| CCC#CCOCC(=S)Nc1ccccc1 | inactive: 2.99% | – |
| CCOC(=O)Cc1csc(NC(=O)Cc2ccccc2[N+](=O)[O-])n1 | – | inconclusive [inhibitor, single point] |
| Cc1ccc(C(=O)NCC(=O)OCC(=O)/C=C2\N(C)c3ccccc3C2(C)C)cc1C | – | inconclusive [inhibitor, single point] |

— PubChem BioAssay AID1454 (National Center for Advancing Translational Sciences (NCATS), 2008)
